This assay has as its system BDF1 mice, colon carcinoma 38 sc, T/C %. Briefly: NCI In Vivo Anticancer Drug Screen. Data for tumor model Colon Carcinoma 38 (subcutaneous) in B6D2F1 (BDF1) mice. Particulars: endpoint: median tumor weight (est.), higher = larger tumour. The method in brief: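 Compound antitumor activity was assessed in mice carrying transplantable tumors. Survival or tumor size was recorded, and each value is the treated-group measurement divided by that of the vehicle-treated control group.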

[1] abbreviates: dose: 100.0 mg/kg/injection, schedule: Q07DX002 (ip), vehicle: saline.
[2] abbreviates: dose: 200.0 mg/kg/injection, schedule: Q07DX002 (ip), vehicle: saline.
The mark [3] stands for this setting: dose: 400.0 mg/kg/injection, schedule: Q07DX002 (ip), vehicle: saline.
[4] abbreviates: dose: 100.0 mg/kg/injection, schedule: Q07DX002 (ip), vehicle: saline with Tween-80.
[5] abbreviates: dose: 50.0 mg/kg/injection, schedule: Q07DX002 (ip), vehicle: saline with Tween-80.
Where [6] appears, read: dose: 6.25 mg/kg/injection, schedule: Q07DX002 (ip), vehicle: saline with Tween-80.

Inconclusive results are not listed. Certain results were filed several times, with different values. This list holds those alone. The source may hold further records. Results that share an entry are repeated measurements across runs, samples, wells, individuals or studies.

For the compound `CN(Cc1cnc2nc(N)nc(N)c2n1)c1c(Cl)cc(C(=O)NC(CCC(=O)O)C(=O)O)cc1Cl` (stereo unspecified), the T/C (dose: 25.0 mg/kg/injection, schedule: Q07DX003 (ip), vehicle: Klucel (hydroxypropylcellulose) (HPC)) is 63 % of control and 94 % of control.

For the compound `CCC[P+](c1ccccc1)(c1ccccc1)c1ccccc1`, the T/C (dose: 12.5 mg/kg/injection, schedule: Q07DX003 (ip), vehicle: saline with Tween-80) was 83 % of control and 119 % of control.

Regarding `O=c1cnn(C2OC(CO)C(O)C2O)c(=O)[nH]1` (stereo unspecified), the T/C runs as follows: under setting [1], 57 % of control and 110 % of control; under setting [2], 11 % of control, 81 % of control, 85 % of control; under setting [3], 61 % of control, 66 % of control, 107 % of control; (dose: 800.0 mg/kg/injection, schedule: Q07DX002 (ip), vehicle: saline) 15 % of control, 85 % of control, 94 % of control; (dose: 1600.0 mg/kg/injection, schedule: Q07DX002 (ip), vehicle: saline) 59 % of control, 103 % of control, 157 % of control; (dose: 3200.0 mg/kg/injection, schedule: Q07DX002 (ip), vehicle: saline) 55 % of control, 71 % of control, 95 % of control.

Take `CC(=O)N(C)C`: the T/C (dose: 450.0 mg/kg/injection, schedule: Q07DX002 (ip), vehicle: saline) was 66 % of control and 111 % of control.

Turning to `CCN(Cc1ccc(Cl)c(Cl)c1)c1ccc2nc(N)nc(N)c2c1C`, for the setting “dose: 50.0 mg/kg/injection, schedule: Q07DX002 (ip), vehicle: distilled water + Tween-80”, the T/C is 95 % of control and 159 % of control.

As for `CCC(CC)COC(=O)c1ccccc1C(=O)OCC(CC)CC`, the T/C by setting is: under setting [4], 76 % of control and 164 % of control; (dose: 200.0 mg/kg/injection, schedule: Q07DX002 (ip), vehicle: saline with Tween-80) 53 % of control and 197 % of control; (dose: 800.0 mg/kg/injection, schedule: Q07DX002 (ip), vehicle: saline with Tween-80) 66 % of control and 111 % of control.

As to `Cc1ccc2c(ccc(CC(=S)[S-])[n+]2C)c1`, the T/C was 85 % of control and 114 % of control (dose: 12.5 mg/kg/injection, schedule: Q07DX002 (ip), vehicle: Klucel (hydroxypropylcellulose) (HPC)); 79 % of control and 187 % of control (dose: 25.0 mg/kg/injection, schedule: Q07DX002 (ip), vehicle: Klucel (hydroxypropylcellulose) (HPC)).

For the compound `Nc1ncnc2c1ncn2C1C=C(CO)C(O)C1O` (stereo unspecified), the T/C (dose: 4.0 mg/kg/injection, schedule: Q07DX002 (ip), vehicle: saline) is 78 % of control and 108 % of control.

With `CC1CN=C(c2ccc(NC(=O)c3ccc(C(=O)Nc4ccc(C5=NCC(C)N5)cc4)cc3)cc2)N1` (stereo unspecified), the T/C is 71 % of control and 107 % of control (dose: 50.0 mg/kg/injection, schedule: Q07DX003 (ip), vehicle: Klucel (hydroxypropylcellulose) (HPC)); 56 % of control and 86 % of control (dose: 100.0 mg/kg/injection, schedule: Q07DX003 (ip), vehicle: Klucel (hydroxypropylcellulose) (HPC)).

Turning to `COc1ccc(C(Cn2ccnc2)Sc2ccc(Cl)c(Cl)c2)cc1` (stereo unspecified), the T/C by setting is: (dose: 12.5 mg/kg/injection, schedule: Q07DX002 (ip), vehicle: saline with Tween-80) 103 % of control and 159 % of control; under setting [5], 65 % of control and 101 % of control.

With `N=C(N)SCc1cccc2c(=O)cc(-c3ccccc3)oc12`, the T/C is 49 % of control, 88 % of control, 100 % of control (dose: 50.0 mg/kg/injection, schedule: Q07DX002 (ip), vehicle: saline); 33 % of control, 41 % of control, 112 % of control under setting [1]; 23 % of control, 74 % of control, 78 % of control under setting [2]; 36 % of control, 76 % of control, 81 % of control under setting [3].

`CC(=O)Nc1ccc(C(=O)C=O)cc1`: the T/C is 85 % of control and 112 % of control under setting [5]; 61 % of control and 108 % of control under setting [4].

For the compound `Nc1ncn(C2OC(CO)C(O)C2O)c(=O)n1` (stereo unspecified), the T/C is 76 % of control, 85 % of control, 122 % of control (dose: 1.0 mg/kg/injection, schedule: Q07DX002 (ip), vehicle: saline); 75 % of control, 93 % of control, 105 % of control (dose: 25.0 mg/kg/injection, schedule: Q07DX002 (ip), vehicle: saline); 55 % of control, 77 % of control, 92 % of control under setting [1]; 57 % of control, 61 % of control, 97 % of control under setting [2].

With `COC(=O)[C@@]12OC[C@]34[C@H]([C@@H](O)[C@@H]1O)[C@@]1(C)CC(=O)C(O)=C(C)[C@@H]1C[C@H]3OC(=O)[C@H](OC(=O)/C=C(\C)C(C)C)[C@@H]24`, the T/C by setting is: (dose: 1.0 mg/kg/injection, schedule: Q07DX003 (ip), vehicle: other) 54 % of control and 86 % of control; (dose: 2.0 mg/kg/injection, schedule: Q07DX003 (ip), vehicle: other) 23 % of control and 56 % of control.

On to `CCSC(=O)N1c2ccc(OC)cc2C=CC1C#N` (stereo unspecified), for which the T/C (dose: 700.0 mg/kg/injection, schedule: Q07DX002 (ip), vehicle: saline with Tween-80) was 84 % of control and 114 % of control.

As to `O=C(O)CP(=O)(O)O`, the T/C is 60 % of control and 92 % of control under setting [1]; 115 % of control and 151 % of control under setting [3].

Regarding `C=C1C(=O)OCC1(C(=O)OCC)C(=O)OCC`, the T/C is, setting by setting: (dose: 3.12 mg/kg/injection, schedule: Q07DX002 (ip), vehicle: saline with Tween-80) 50 % of control and 86 % of control; under setting [6], 55 % of control and 91 % of control; (dose: 25.0 mg/kg/injection, schedule: Q07DX002 (ip), vehicle: saline with Tween-80) 29 % of control and 123 % of control.

`CC(C)(C)N1CC1CNC(=O)C(=O)NCC1CN1C(C)(C)C` (stereo unspecified): the T/C reads like this: (dose: 1.56 mg/kg/injection, schedule: Q07DX002 (ip), vehicle: saline with Tween-80) 73 % of control and 109 % of control; under setting [6], 84 % of control, 94 % of control, 175 % of control; under setting [5], 10 % of control, 17 % of control, 65 % of control.

The values are drawn from PubChem BioAssay AID212 (DTP/NCI, 2004).
